Test results taken from PubChem BioAssay AID624417 (National Center for Advancing Translational Sciences (NCATS), 2012).
“And” between values parts separate entries of the source, which are not always exact repeats. Equal entries are not always repeated. About 6,400 (1.6%) of roughly 410,000 compounds were called active. This list was built around the results that the source calls inconclusive (neither active nor inactive); the mix of calls is not that of the screen. Calls come from the whole dose curve; as a rule, active = well fitted inhibition curve with a large enough effect; inconclusive = small, poorly fitted or top-dose-only effect; inactive = no such curve, though single readings can be large or run the other way. A potency beside an inconclusive call is a rough fit, not a confirmed value.

The compounds below were run against Glucagon-like peptide 1 receptor (Homo sapiens) (UniProt P43220) (assay: qHTS of GLP-1 Receptor Inverse Agonists (Inhibition Mode)). Conditions: HEK293 GLP-1R CRE-luciferase, luminescence, 24 h, GLP-1R form is constitutively active; activity change, negative = inhibition: at 38.3 µM (top of the series) unless noted.
Procedure, shortened: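 Luminescence readout: a drop in cAMP-driven luciferase signal flags inverse agonism at a constitutively active GLP-1R stably expressed in HEK293. Compound exposure lasted 24 hr at 37 deg C, 5% CO2.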
% is set by controls: 0 for no effect and ±100 for the full control effect; potency is the fitted concentration of half-maximal effect; tags give direction and shape of the fitted curve.
Note: nearly all actives have a fitted effect of over 55% in size.

Sequence of UniProt P43220 (P43220 whole entry, looked up): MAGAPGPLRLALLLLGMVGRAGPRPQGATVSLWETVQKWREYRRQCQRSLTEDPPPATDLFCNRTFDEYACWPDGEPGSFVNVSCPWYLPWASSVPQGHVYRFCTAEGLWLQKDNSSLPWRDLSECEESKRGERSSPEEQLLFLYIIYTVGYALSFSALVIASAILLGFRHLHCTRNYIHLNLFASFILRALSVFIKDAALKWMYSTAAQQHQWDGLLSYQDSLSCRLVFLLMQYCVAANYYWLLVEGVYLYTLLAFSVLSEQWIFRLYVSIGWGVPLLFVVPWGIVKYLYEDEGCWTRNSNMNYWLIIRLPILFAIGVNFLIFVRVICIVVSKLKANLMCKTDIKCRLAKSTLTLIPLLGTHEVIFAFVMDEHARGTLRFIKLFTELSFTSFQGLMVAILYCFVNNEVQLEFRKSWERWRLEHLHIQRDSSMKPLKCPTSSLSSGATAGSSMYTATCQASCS

SMILES | Potency | activity change, negative = inhibition
O=C(NCCOc1ccccc1F)c1ccccc1SCc1ccc(F)cc1 | inconclusive: 20 µM [inhibitor, single point] | 
CC1CCN(S(=O)(=O)c2csc(C(=O)Nc3ccccc3)c2)CC1 | inconclusive: 31.6 µM [inhibitor, partial curve, poor fit] | 
COc1ccc([C@H]2CC(=O)C=C(c3cccc(C(C)C)c3)C2)cc1 | inconclusive: 12.6 µM [inhibitor, single point] | 
Cc1c(Cl)cccc1NC(=S)NCCc1ccc(C(F)(F)F)cc1 | inconclusive: 14.1 µM [inhibitor, single point] | 
CCOC(=O)c1c(-c2ccc(C)cc2)csc1NC(=O)c1cc(=O)c2cc(C)c(C)cc2o1 |  | inactive: 14.8%
CCSc1nnc(NC(=O)CSc2nccn2-c2cccc(C)c2)s1 |  | inactive: -22.9%
COc1ccc2ccccc2c1C(=O)/C=C\c1ccoc1 | inconclusive: 10 µM [inhibitor, partial curve, poor fit] | 
O=C1c2ccccc2C(=O)c2cc(N3CCCCC3)ccc21 |  | inactive: -44.2%
Cc1[nH]nc2c1C(c1ccc(F)cc1)C(C#N)=C(N)O2 (stereo not given) |  | inactive: 0.756%
O=C(N/N=C/c1ccc2c(c1)OCO2)c1sc2cc(Cl)ccc2c1Cl |  | inactive: 17.6%
Cc1cc2oc(=O)cc(-c3ccccc3)c2c(C)c1-c1ccc(C#N)cc1 | inconclusive: 28.2 µM [inhibitor, single point] | 
Cc1ccccc1C(=O)N(CC(=O)Nc1sc(C)c(C)c1C(N)=O)C1CCCC1 | inconclusive: 12.6 µM [inhibitor, single point] | 
Cn1c2ccccc2c(=O)c2c(=O)n(-c3ccccc3)c(-c3ccc(C(C)(C)C)cc3)nc21 | inconclusive: 17.8 µM [inhibitor, single point] | 
CCOc1ccccc1CN1CCN(CC2=Cc3cc(OC)ccc3OC2)CC1CCO (stereo not given) | inconclusive: 17.8 µM [inhibitor, partial curve, poor fit] | 
COc1cc(NC(=O)c2cc(OC)c(OC)c(OC)c2)ccc1NC(=O)c1cccs1 | inconclusive: 31.6 µM [inhibitor, single point] | 
Cc1ccc(C(=O)Nc2ccc3c(c2)N(C)C(=O)c2ccccc2S3)cc1F | active: 1.78 µM | 
CC1(Cc2ccc(OC(F)(F)F)cc2)C(=O)Nc2ccc(OC(F)(F)F)cc21 (stereo not given) | inconclusive: 12.6 µM [inhibitor, single point] | 
Cc1sc2ncnc(Sc3nnnn3-c3ccc(Cl)cc3)c2c1C | inconclusive: 28.2 µM [inhibitor, single point] | 
COC(=O)/C(C#N)=C(/Nc1ccc(F)c(Cl)c1)C(F)(F)F |  | inactive: 8%
CC(c1ccccc1C(O)c1ccccc1)N(C)C (stereo not given) |  | inactive: -10.1%
OC1CCCN(c2c3c(nc4cc(-c5cccc(F)c5)nn24)CCCC3)C1 (stereo not given) | inconclusive: 28.2 µM [inhibitor, single point] | 
O=C(OCC(=O)N1CCN(C(=O)c2ccco2)CC1)c1cc(F)c(F)cc1Cl |  | inactive: 6.36%

SMILES | Potency | activity change, negative = inhibition
Cc1ccc(C(c2sc3nc(-c4ccco4)nn3c2O)N2CCCCC2)cc1 (stereo not given) |  | inactive: -19.9%
COc1ccccc1-c1cc(NC=O)c2ncc(-c3cccc(C(=O)N(C)C)c3)n2c1 | inconclusive: 28.2 µM [inhibitor, single point] | 
CN1C(=O)C2(OCC(C)([N+](=O)[O-])CO2)c2ccccc21 (stereo not given) |  | inactive: -8.28%
COc1ccc2cc(C(=O)N3CCCC(Nc4ccc(F)cc4)C3)n(C)c2c1 (stereo not given) | inconclusive: 11.2 µM [inhibitor, single point] | 
COc1ccc(/C=C/C(=O)c2cc(Cl)ccc2O)c(OC)c1 | inconclusive: 12.6 µM [inhibitor, single point] | 
O=c1cnn(Cc2ccc(Cl)c(Cl)c2)c2ccccc12 | inconclusive: 3.16 µM [inhibitor, single point] | 
CCCCCCC(=O)N1CCCC(c2nc(-c3cccc(OC)c3)no2)C1 (stereo not given) | inconclusive: 11.2 µM [inhibitor, partial curve, poor fit] | 
O=C(Nc1ccc(Br)cc1)c1ccc(Br)c(S(=O)(=O)NCc2ccccc2)c1 | active: 10 µM | 
COc1ccc(NS(=O)(=O)c2ccc(C(=O)N(C)Cc3cccs3)cc2)cc1 | inconclusive: 4.47 µM [inhibitor, full curve] | 
Clc1nc(Cl)nc(NCCC2=CCCCC2)n1 |  | inactive: 23.3%
Cc1oc(-c2ccccc2Cl)nc1CN1CCCC1c1ccc(F)cc1 (stereo not given) | inconclusive: 10 µM [inhibitor, partial curve, poor fit] | 
Cc1cc(C(=O)CC#N)c(C)n1-c1ccc(OC(F)F)cc1 | inconclusive: 6.31 µM [inhibitor, partial curve, poor fit] | 
CCc1noc(C)c1C(=O)OCC(=O)Nc1nc(-c2ccc(F)c(F)c2)cs1 | inconclusive: 28.2 µM [inhibitor, single point] | 
NC(c1ccccc1)c1csc(NC(=O)NCCc2ccccc2)n1 (stereo not given) | inconclusive: 10 µM [inhibitor, partial curve, poor fit] | 
COc1cc(C)c(S(=O)(=O)NC2CC(C)(C)NC(C)(C)C2)cc1C | inconclusive: 28.2 µM [inhibitor, single point] | 
COc1cccc(/C=C/C(=O)OCC(=O)c2ccc(C)c(C)c2)c1OC | inconclusive: 31.6 µM [inhibitor, single point] | 
O=c1ccc(/C=C/c2ccccc2)nn1Cc1ccc(F)cc1 | inconclusive: 28.2 µM [inhibitor, single point] | 
NN(Cc1ccccc1)C(=S)Nc1ccc(Cl)c(Cl)c1 | inconclusive: 8.91 µM [inhibitor, partial curve, poor fit] | 
CC(C)c1ccc(N2C(=O)/C(=C/N(C)C)SC2=S)cc1 | inconclusive: 11.2 µM [inhibitor, partial curve, poor fit] | 
Cc1nc2ccccc2n(CC(=O)Nc2cc(Cl)cc(Cl)c2)c1=O | inconclusive: 2.51 µM [inhibitor, full curve, poor fit] | 
O=C(NCCCN1CCOCC1)c1cc(-c2ccc(Br)cc2)nc2ccccc12 | inconclusive: 14.1 µM [inhibitor, partial curve, poor fit] | 
O=C(NCCCN1CCCC1)c1ccc2c(c1)N(Cc1ccccc1)CCS2 | inconclusive: 6.31 µM [inhibitor, partial curve, poor fit] | 

SMILES | Potency | activity change, negative = inhibition
Cc1onc(-c2c(Cl)cccc2Cl)c1C(=O)Nc1nc(C(C)(C)C)cs1 | inconclusive: 3.98 µM [inhibitor, partial curve, poor fit] | 
COc1cc(NC(=O)CCc2c(C)nc3c(c(C)nn3-c3ccccc3)c2C)cc(OC)c1OC |  | inactive: 7.23%
CN1C(=O)C2CCCCN2c2ccc(C(=O)NCc3ccccc3Br)cc21 (stereo not given) | inconclusive: 5.62 µM [inhibitor, partial curve, poor fit] | 
c1ccc2c(c1)Cn1c-2nc2ccccc21 | inconclusive: 8.91 µM [inhibitor, partial curve, poor fit] | 
COc1ccccc1CNC(=O)Nc1ccc2c(c1)N(C)C(=O)c1ccccc1S2 | inconclusive: 11.2 µM [inhibitor, partial curve, poor fit] | 
CN(C(=O)c1cccc(Nc2ccc(-c3ccc4c(c3)OCCO4)nn2)c1)C1CCCCC1 | inconclusive: 10 µM [inhibitor, single point] | 
COc1ccc(Br)cc1CNC(=O)CCC(=O)N1CCSc2ccccc21 | inconclusive: 12.6 µM [inhibitor, single point] and inconclusive: 7.94 µM [inhibitor, partial curve, poor fit] | 
COc1ccc(-c2cc(C(F)(F)F)nc(NCc3ccco3)n2)cc1OC |  | inactive: -3.88%
O=C(Cn1nnc(-c2ccccc2NC(=O)c2ccco2)n1)Nc1ccccc1 | inconclusive: 5.62 µM [inhibitor, full curve, poor fit] | 
O=C(NCc1ccccc1)c1onc(CSc2ccccc2)c1C(=O)NCc1ccccc1 | inconclusive: 14.1 µM [inhibitor, partial curve, poor fit] | 
COc1ccccc1NS(=O)(=O)c1cccc(NC(=O)c2cncc(Br)c2)c1 | inconclusive: 28.2 µM [inhibitor, single point] | 
COc1ccc(CSc2nc3ccncc3n2Cc2nc(-c3ccc(OC)c(OC)c3)oc2C)cc1 |  | inactive: 11.9%
Cn1cc(CN(CCO)Cc2cccs2)c(-c2cccc(Cl)c2)n1 | inconclusive: 8.91 µM [inhibitor, partial curve, poor fit] | 
COc1ccc(-c2ccc3c(c2)C2CC3CCN2C(=O)C2CCCCC2)cc1 (stereo not given) | inconclusive: 28.2 µM [inhibitor, single point] | 
Cc1cccc2sc(N(Cc3cccnc3)C(=O)C3CCCCC3)nc12 | inconclusive: 28.2 µM [inhibitor, single point] | 
CN(Cc1ccccc1F)c1ncnc2sccc12 | inconclusive: 31.6 µM [inhibitor, single point] | 
Brc1ccc(C2Nc3cccc4cccc(c34)N2)s1 |  | inactive: 11.3%
COc1ccc(S(=O)(=O)c2cn(CC(=O)Nc3ccccc3)c3ccc(Cl)cc3c2=O)cc1 |  | inactive: 0.974%
Cc1nn(-c2ccccc2)c(C)c1NC(=O)COc1ccc(Cl)cc1Cl | inconclusive: 11.2 µM [inhibitor, partial curve, poor fit] | 
Cc1ccccc1C(=O)Nc1nc2c(s1)CC(C(C)(C)C)CC2 (stereo not given) | inconclusive: 2 µM [inhibitor, partial curve, poor fit] | 
Fc1ccc(C(c2nnnn2C2CCCC2)N(Cc2ccco2)CC2CCCO2)cc1 (stereo not given) | inconclusive: 28.2 µM [inhibitor, single point] | 
